Measured values from paper PMC6015050.
Results are given in words; binding and its absence hold for the method and conditions named. Binding seen in cells or lysates may run through a third protein. Some entries that bind do so weakly or less than the wild type. For some assays here: Tags and fused reporters may be left off the sequences shown. Values belong to the molecule of their own block, whether it stands above or below them.

The chains behind the UniProt entries cited, without tags or fusion partners. Residues count along the entry.
UniProt P12154: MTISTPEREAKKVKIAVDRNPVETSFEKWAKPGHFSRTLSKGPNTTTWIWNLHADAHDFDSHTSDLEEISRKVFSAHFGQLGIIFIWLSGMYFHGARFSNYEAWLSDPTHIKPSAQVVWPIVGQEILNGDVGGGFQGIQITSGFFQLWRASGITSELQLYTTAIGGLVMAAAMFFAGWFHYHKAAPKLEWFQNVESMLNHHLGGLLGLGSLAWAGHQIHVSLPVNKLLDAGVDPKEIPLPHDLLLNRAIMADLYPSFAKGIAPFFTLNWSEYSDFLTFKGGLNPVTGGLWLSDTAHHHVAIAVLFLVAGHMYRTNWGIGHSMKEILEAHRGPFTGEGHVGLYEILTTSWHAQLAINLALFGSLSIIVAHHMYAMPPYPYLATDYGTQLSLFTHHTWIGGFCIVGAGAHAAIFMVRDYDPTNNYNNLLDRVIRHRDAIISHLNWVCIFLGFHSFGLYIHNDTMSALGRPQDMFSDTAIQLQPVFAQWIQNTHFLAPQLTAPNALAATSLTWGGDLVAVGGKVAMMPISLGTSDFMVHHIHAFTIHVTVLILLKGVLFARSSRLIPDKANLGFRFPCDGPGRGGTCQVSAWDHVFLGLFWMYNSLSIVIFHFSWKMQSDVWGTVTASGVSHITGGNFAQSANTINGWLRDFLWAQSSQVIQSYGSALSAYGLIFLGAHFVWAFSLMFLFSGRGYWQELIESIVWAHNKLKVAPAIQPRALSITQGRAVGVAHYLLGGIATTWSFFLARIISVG
UniProt P09144: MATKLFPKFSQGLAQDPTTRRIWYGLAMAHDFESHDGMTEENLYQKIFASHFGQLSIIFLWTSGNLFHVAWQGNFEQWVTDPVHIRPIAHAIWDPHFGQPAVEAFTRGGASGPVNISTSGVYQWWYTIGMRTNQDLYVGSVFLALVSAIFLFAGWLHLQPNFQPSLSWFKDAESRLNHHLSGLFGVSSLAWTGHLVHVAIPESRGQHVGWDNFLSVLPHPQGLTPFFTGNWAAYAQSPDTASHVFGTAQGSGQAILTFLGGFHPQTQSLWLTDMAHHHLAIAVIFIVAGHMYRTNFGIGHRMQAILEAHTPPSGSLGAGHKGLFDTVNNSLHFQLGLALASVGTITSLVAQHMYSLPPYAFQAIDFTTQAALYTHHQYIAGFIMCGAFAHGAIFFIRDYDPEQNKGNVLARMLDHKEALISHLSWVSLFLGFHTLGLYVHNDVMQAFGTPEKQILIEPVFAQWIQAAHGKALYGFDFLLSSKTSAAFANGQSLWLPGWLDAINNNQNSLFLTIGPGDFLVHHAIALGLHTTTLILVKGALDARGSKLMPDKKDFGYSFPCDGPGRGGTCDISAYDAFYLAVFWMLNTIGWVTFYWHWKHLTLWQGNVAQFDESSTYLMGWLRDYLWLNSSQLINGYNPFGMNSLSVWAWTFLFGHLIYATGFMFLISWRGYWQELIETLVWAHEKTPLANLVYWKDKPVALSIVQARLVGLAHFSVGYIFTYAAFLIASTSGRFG
UniProt P12352, residues 25-97: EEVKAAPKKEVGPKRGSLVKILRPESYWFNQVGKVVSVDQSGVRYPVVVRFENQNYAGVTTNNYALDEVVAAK

Tests used:
[1] = biological target: T1, Ycf4 fused with HA tag at the N-terminus (HA-Ycf4) (C. reinhardtii) (UniProt O20030); experiment: co-IP; affinity-purified HA-Ycf4 preparation (anti-HA beads, β-DM), concentrated and fractionated by sucrose density gradient ultracentrifugation; fractions Y1, Y2, Y3 analysed by stained gel and immunoblot
T1 sequence: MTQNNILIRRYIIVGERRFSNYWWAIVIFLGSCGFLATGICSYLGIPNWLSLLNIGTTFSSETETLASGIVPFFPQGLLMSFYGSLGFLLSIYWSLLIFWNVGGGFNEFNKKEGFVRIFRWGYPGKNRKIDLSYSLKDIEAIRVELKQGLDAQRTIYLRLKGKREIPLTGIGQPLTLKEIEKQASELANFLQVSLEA

[2] = biological target: T1, Ycf4 fused with HA tag at the N-terminus (HA-Ycf4) (C. reinhardtii); experiment: co-IP; HA-Ycf4 from thylakoid extracts (1% β-DM) of the HA-ycf4 mutant on anti-HA beads, 1 h, eluted with HA peptide; stained gel and immunoblot; also from cells pulse-labelled with 35S (10 min) and chased 6 h, autoradiography; WT extract as negative control
[3] = biological target: T2, Ycf3 fused with HA-tag at the C-terminus (Ycf3-HA) (C. reinhardtii) (UniProt O20031); experiment: co-IP; Ycf3-HA from thylakoid extracts (1% α-DM) of the ycf3-HA mutant on anti-HA beads in a spin column, 1 h, eluted with HA peptide; stained gel and immunoblot; also from cells pulse-labelled with 35S (10 min) and chased 6 h, autoradiography; WT extract as negative control
T2 sequence: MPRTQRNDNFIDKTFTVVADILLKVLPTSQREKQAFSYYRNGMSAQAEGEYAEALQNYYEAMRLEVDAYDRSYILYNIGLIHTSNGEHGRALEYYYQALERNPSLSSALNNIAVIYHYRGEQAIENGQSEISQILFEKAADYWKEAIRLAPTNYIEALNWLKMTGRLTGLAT

[4] = biological target: PsaA (C. reinhardtii (endogenous in C. reinhardtii)) (UniProt P12154); experiment: co-sedimentation; affinity-purified Ycf3-HA preparation, concentrated, sucrose density gradient (0.1-1.3 M sucrose, 5 mM Tricine-NaOH pH 8.0, 0.05% DM), 202,000 x g, 16 h; fractions immunoblotted
[5] = biological target: T1, Ycf4 fused with HA tag at the N-terminus (HA-Ycf4) (C. reinhardtii); experiment: co-sedimentation; affinity-purified HA-Ycf4 preparation on a sucrose density gradient (0.1-1.3 M sucrose, 5 mM Tricine-NaOH pH 8.0, 0.05% DM), 202,000 x g, 16 h; HA-Ycf4 followed by immunoblot

binding [1]: binds
binding [2]: binds
binding [3]: binds
Molecule: PsaB (from UniProt P09144 1-735)

binding [4]: binds
binding [2]: binds
binding [3]: binds
B2: endogenous Ycf4 (protein, UniProt O20030 1-197)
chain: T1 sequence

binding [5]: binds
B3: Ycf4 fused with HA tag at the N-terminus (HA-Ycf4) (protein, UniProt O20030 1-197)
chain: T1 sequence

binding [1]: binds
binding [2]: binds
binding [3]: no binding
B5: PsaC (protein, UniProt Q00914 1-81)
chain: MAHIVKIYDTCIGCTQCVRACPLDVLEMVPWDGCKASQMASAPRTEDCVGCKRCETACPTDFLSVRVYLGSESTRSMGLSY

binding [2]: binds
binding [3]: binds
B6: endogenous Ycf3 (protein, UniProt O20031 1-172)
chain: T2 sequence

More lines, now with the values behind:

Molecule: PSAE (from UniProt P12352 25-97)
binding [1]: binds
binding [2]: binds

Molecule: PsaA (from UniProt P12154 1-751)
binding [1]: binds
binding [2]: binds
binding [3]: binds

B1: PSAF (protein, UniProt P12356 63-227)
chain: DIAGLTPCSESKAYAKLEKKELKTLEKRLKQYEADSAPAVALKATMERTKARFANYAKAGLLCGNDGLPHLIADPGLALKYGHAGEVFIPTFGFLYVAGYIGYVGRQYLIAVKGEAKPTDKEIIIDVPLATKLAWQGAGWPLAAVQELQRGTLLEKEENITVSPR
binding [1]: binds
binding [2]: binds
binding [3]: binds

B4: PSAH (protein, UniProt P13352 31-130)
chain: KYGENSRYFDLQDMENTTGSWDMYGVDEKKRYPDNQAKFFTQATDIISRRESLRALVALSGIAAIVTYGLKGAKDADLPITKGPQTTGENGKGGSVRSRL
binding [2]: binds

B7: PSAG (protein, UniProt P14224 31-126)
chain: ALDPQIVISGSTAAFLAIGRFVFLGYQRREANFDSTVGPKTTGATYFDDLQKNSTIFATNDPAGFNIIDVAGWGALGHAVGFAVLAINSLQGANLS
binding [1]: no binding

B8: PSAK (protein, UniProt P14225 27-113)
chain: DGFIGSSTNLIMVASTTATLAAARFGLAPTVKKNTTAGLKLVDSKNSAGVISNDPAGFTIVDVLAMGAAGHGLGVGIVLGLKGIGAL
binding [1]: no binding

B9: PSAD (protein, UniProt Q39615 36-196)
chain: EAEAAPAAAKKAAEKPAWTVPTLNPDTPSPIFGGSTGGLLRKAQTEEFYVITWEAKKEQIFEMPTGGAAIMRQGPNLLKFGKKEQCLALTTQLRNKFKLTPCFYRVFPDGKVQYLHPADGVYPEKVNAGRVGANQNMRRIGQNVNPIKVKFSGRMMSPAEI
binding [1]: binds
binding [2]: binds
binding [3]: no binding
